Laboratory results as given in paper PMC2991254.
These are yes or no findings as the source states them, for the method shown. Some entries that bind do so weakly or less than the wild type. Blank lines part the entries; values can stand above or below the binder they belong to.

Tests used:
Test in all cases: two-hybrid; matrix-based yeast two-hybrid, GAL4-AD and GAL4-BD fusions (pDEST22, pDEST32), in duplicate, at least two reporter genes; medium lacking Leu, Trp and His with 1 mM 3-amino-1,2,4-triazole, growth scored after 4 days at 20°C
Conditions in all cases: remark: other sources report otherwise
[1] = target: SHORT … PHASE (SVP1) (Arabidopsis thaliana), Q9FVC1
[2] = target: T1, AGL15 (Arabidopsis thaliana), Q38847
T1 chain: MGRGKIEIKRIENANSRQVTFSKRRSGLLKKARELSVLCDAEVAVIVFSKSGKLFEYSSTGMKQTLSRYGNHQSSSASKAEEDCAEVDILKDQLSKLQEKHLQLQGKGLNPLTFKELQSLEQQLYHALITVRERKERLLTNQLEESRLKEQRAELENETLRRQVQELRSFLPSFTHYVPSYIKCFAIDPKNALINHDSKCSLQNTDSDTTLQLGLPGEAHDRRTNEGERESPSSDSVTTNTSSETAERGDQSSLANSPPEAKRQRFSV

[3] = target: T2, AGAMOUS-LIKE24 (Arabidopsis thaliana), O82794
T2 chain: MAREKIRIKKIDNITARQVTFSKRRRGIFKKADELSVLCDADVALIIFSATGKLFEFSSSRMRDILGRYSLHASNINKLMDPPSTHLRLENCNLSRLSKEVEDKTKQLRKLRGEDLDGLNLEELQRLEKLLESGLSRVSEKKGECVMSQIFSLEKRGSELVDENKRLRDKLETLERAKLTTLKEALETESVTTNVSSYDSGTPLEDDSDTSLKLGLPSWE

[4] = target: AGAMOUS (Arabidopsis thaliana), P17839

binding [1]: binds
B1: AGAMOUS LIKE14, Q38838 1-221 (protein)
chain: MVRGKTEMKRIENATSRQVTFSKRRNGLLKKAFELSVLCDAEVALIIFSPRGKLYEFSSSSSIPKTVERYQKRIQDLGSNHKRNDNSQQSKDETYGLARKIEHLEISTRKMMGEGLDASSIEELQQLENQLDRSLMKIRAKKYQLLREETEKLKEKERNLIAENKMLMEKCEMQGRGIIGRISSSSSTSELDIDDNEMEVVTDLFIGPPETRHFKKFPPSN

binding [2]: binds
binding [3]: binds
binding [4]: binds
B2: AGAMOUS-LIKE24, O82794 1-220 (protein)
chain: T2 chain
